Reference: paper PMC4336329 (PLoS ONE, 2015)
The whole screen tested about 310,000 compounds, of which about 2,200 (0.71%) showed an effect of 50% or more. The effect is printed as a negative number. Some of the results follow.

These molecules were tested against human ether-à-go-go-related gene (hERG) potassium channel (human, UniProt Q12809) (assay: primary screen, population patch clamp on CHO cells stably expressing hERG).
Sequence of human ether-à-go-go-related gene (hERG) potassium channel (Q12809 whole entry, looked up): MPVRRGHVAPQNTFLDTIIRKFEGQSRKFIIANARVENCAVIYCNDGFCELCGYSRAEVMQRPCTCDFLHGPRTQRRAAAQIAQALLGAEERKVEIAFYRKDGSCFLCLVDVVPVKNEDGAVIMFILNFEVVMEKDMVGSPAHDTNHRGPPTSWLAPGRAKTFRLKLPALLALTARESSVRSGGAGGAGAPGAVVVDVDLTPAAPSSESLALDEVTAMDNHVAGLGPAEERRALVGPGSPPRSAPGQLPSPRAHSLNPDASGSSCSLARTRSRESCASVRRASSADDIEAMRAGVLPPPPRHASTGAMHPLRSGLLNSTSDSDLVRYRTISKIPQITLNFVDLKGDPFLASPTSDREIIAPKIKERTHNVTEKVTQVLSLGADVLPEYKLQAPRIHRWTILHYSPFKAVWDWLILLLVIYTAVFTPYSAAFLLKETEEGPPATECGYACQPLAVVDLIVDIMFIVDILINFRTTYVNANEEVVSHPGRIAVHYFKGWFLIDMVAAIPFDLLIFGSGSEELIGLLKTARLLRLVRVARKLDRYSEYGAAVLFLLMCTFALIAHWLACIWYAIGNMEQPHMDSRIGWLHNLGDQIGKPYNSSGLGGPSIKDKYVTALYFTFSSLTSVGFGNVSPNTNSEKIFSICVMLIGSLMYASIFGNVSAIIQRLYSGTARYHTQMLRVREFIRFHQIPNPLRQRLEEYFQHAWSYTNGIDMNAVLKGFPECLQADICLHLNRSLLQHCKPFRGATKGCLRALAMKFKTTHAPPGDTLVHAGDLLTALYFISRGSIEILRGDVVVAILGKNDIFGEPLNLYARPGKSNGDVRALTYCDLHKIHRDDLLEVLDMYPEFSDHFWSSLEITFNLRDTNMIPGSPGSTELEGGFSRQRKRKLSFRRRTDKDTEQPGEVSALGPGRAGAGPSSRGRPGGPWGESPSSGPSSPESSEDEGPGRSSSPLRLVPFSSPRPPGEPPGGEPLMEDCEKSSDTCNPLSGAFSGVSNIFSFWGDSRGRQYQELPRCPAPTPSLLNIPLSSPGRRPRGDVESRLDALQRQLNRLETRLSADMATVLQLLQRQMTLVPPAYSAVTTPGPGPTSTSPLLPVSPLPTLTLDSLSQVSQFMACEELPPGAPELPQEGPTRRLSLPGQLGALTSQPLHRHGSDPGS

Compound	hERG current change (%, negative = inhibition) at 1uM [%]
Cc1ccccc1CSCC(=O)Nc1ccccc1F	11.6
COc1ccc(Nc2oc(-c3ccco3)nc2S(=O)(=O)c2ccc(F)cc2)cc1	-10.2
COc1cc(/C=C/[N+](=O)[O-])ccc1OC(=O)/C=C/c1ccc(F)cc1	18.1
COc1cc(Cl)c(C)cc1NC(=O)Cn1c(NCCO)nc2ccccc21	8.57
COc1cccc(/C=N/N2C(=O)CSC2=S)c1O	10.3
O=C(Nc1cccc(O)c1)c1ccc([N+](=O)[O-])cc1Cl	2.16
COc1ccccc1-c1cc(C(F)(F)F)nc(N2CCCCC2)n1	-11
COc1ccc(-c2[nH]ncc2CN2CCN(c3ccccn3)CC2)c(OC)c1	2.51
COc1ccc(CN(C)CC(=O)NC(C)c2ccccc2)c(OC)c1 (stereo not drawn)	-2.83
CC(OC(=O)c1ccccc1NS(=O)(=O)c1cccc(N)c1)C(=O)N(C)Cc1ccccc1 (stereo not drawn)	2.73
Cc1ccc(-c2nn(-c3cc(N4CCNCC4)ccc3[N+](=O)[O-])c(=O)c3ccccc23)cc1	11
Cc1ccc(C(=O)Nc2cccc(C(F)(F)F)c2)cc1Nc1ccccn1	10.8
Cn1ncc2c(Nc3cccc([N+](=O)[O-])c3)ncnc21	10.9
CN(C)CCCOc1cccc(Oc2ccccc2)c1.O=C(O)C(=O)O	6.95
CCCn1c(SCC(=O)c2cc(OC)ccc2OC)nnc1C(C)C	12
CC12CC(c3ccccc3O1)N(C(=O)c1ccc(Br)o1)C(=O)N2c1ccccc1 (stereo not drawn)	18.5
COc1ccc(NC(=O)CSc2nc(N)c(C#N)cc2C#N)cc1	-7.37
Cc1cc(NC(=O)COC(=O)c2ccccc2[N+](=O)[O-])no1	3.24
CC(=O)O.CC1(C)CC(=O)C2=C(C1)NC1=C(C(=O)c3ccccc31)C2c1cc([N+](=O)[O-])ccc1O (stereo not drawn)	-4.45
CCN(CC)c1ccc(NC(=O)COC(=O)/C=C/c2nc3ccccc3s2)cc1	13.8
CCOC(=O)c1csc(NC(=O)CN2CCCCC2)n1	19.1

Compound	hERG current change (%, negative = inhibition) at 1uM [%]
CC(=O)NS(=O)(=O)c1ccc(N=c2ssc3c2-c2cc(C)ccc2NC3(C)C)cc1	-1.11
CC(NC(=O)c1cccc(S(=O)(=O)N(C)C)c1)C1CC2CCC1C2 (stereo not drawn)	16.8
CNc1nnc(-c2cc3ccccc3oc2=O)s1	9.57
O=C(Cc1ccc(S(=O)(=O)N2CCOCC2)s1)Nc1ccc(S(=O)(=O)N2CCCCC2)cc1	14.1
CCOC(=O)c1c(C)[nH]c(C)c1C(=O)COC(=O)/C=C/c1ccc(Cl)cc1	12
COc1ccc2cc1Oc1ccc(cc1)C[C@H]1c3cc(c(OC)cc3CCN1C)Oc1c(OC)c(OC)cc3c1[C@@H](C2)N(C)CC3	1.24
[O-]/[N+](=C\c1ccco1)c1ccc(Cl)cc1	13.2
CCC(C)(C)NC(=O)/C=C/c1cccs1	-5.86
Cn1cc(/C=C(\C#N)C(=O)Nc2ccccc2O)c2ccccc21	7.79
COc1cccc(NC(=O)CN(c2cccc(F)c2)S(C)(=O)=O)c1	7.53
Cc1ccccc1-n1c(O)c(/C=N/c2nccs2)c(=O)[nH]c1=O [22412411]	8.54
Cc1ccc(S(=O)(=O)NCCC(=O)N2CCN(Cc3ccccc3)CC2)cc1	14.6
CCOc1ccc2cc(C(=O)NCc3ccccc3)c(=N)oc2c1	13.1
O=C(OCC(=O)N1CCN(c2ccccc2)CC1)c1ccc(Cl)nc1	12.4
NC(=O)c1ccc(N2CCCCCC2)c([N+](=O)[O-])c1	8.07
CC(C)Oc1ccccc1-c1nc(SCC(=O)O)n[nH]1	7.58
CCOc1cc(C2NN=C(c3ccccc3)S2)ccc1OCc1ccc(F)cc1 (stereo not drawn)	15.6
CCC(Cc1ccccc1)NC(=O)Cn1ncc2ccsc2c1=O (stereo not drawn)	7.13
O=[N+]([O-])c1ccc2nc(CN3CCCCC3)[nH]c2c1	15.4
CC(C)[C@H]1C(=O)Nc2ccccc2N1C(=O)N[C@@H](Cc1ccccc1)C(=O)N[C@H](Cc1ccccc1)C(=O)O	1.45
Nc1nc(-c2ccc(C(=O)O)cc2)cs1	9.18
